Assay results: PMC4336329 (PLoS ONE, 2015)
Screen size: about 310,000 compounds; about 14,000 (4.5%) showed an effect of 50% or more. Effects have a minus sign here. The list shows a part of the results.

target: human ether-à-go-go-related gene (hERG) potassium channel (human, UniProt Q12809); test: primary screen, population patch clamp on CHO cells stably expressing hERG
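Also: peak tail current of the secondary pulse compared with the same well before compound.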

Sequence of human ether-à-go-go-related gene (hERG) potassium channel (Q12809 whole entry, looked up): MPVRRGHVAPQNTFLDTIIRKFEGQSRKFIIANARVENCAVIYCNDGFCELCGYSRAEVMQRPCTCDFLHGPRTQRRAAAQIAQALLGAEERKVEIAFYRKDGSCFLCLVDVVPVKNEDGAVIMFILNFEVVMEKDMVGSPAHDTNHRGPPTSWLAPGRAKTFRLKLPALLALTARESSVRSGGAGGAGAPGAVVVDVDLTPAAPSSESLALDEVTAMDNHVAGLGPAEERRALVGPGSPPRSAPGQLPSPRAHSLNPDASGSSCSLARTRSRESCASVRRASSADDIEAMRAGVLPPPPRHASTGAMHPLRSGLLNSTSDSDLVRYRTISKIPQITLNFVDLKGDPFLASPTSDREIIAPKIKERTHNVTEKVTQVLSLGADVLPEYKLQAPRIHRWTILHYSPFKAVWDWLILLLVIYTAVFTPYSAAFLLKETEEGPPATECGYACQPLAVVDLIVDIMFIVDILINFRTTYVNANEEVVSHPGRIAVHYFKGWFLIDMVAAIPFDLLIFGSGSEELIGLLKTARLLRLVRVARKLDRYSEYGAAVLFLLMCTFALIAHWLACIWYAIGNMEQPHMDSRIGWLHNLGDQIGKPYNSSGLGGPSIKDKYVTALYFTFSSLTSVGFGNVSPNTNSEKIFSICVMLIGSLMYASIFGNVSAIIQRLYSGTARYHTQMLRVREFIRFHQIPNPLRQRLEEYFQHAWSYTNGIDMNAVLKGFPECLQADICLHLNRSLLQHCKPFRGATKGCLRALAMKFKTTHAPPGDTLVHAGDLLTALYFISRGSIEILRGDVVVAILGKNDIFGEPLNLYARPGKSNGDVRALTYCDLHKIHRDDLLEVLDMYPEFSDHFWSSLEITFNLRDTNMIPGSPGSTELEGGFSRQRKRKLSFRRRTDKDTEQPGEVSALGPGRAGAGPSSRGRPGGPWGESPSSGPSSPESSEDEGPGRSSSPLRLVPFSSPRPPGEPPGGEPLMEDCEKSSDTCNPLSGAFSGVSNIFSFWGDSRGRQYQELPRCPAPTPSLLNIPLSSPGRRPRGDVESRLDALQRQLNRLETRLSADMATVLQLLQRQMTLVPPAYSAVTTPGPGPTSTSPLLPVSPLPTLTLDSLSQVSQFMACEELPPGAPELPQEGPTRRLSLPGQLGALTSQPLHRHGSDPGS

| Structure (SMILES) | hERG current change (%, negative = inhibition) at 10uM [%] |
| --- | --- |
| Cc1cc(F)ccc1NS(=O)(=O)c1c(C)nc2scc(C)n2c1=O | -35.8 |
| C[C@@]12C(=O)N(Cc3ccccc3)CC(=O)N1[C@H]1c3ccccc3OC[C@@H]1[C@@H]2c1ccccc1 | 3.84 |
| CCN(CC)S(=O)(=O)c1ccc(N2CCCCC2)c(NC(=O)/C=C/c2cc(OC)c(OC)c(OC)c2)c1 | 7.15 |
| Cc1cccc2cc(C3CC(c4ccco4)=NN3S(C)(=O)=O)c(Cl)nc12 (stereo not drawn) | -29.9 |
| CCOc1cc(C2c3c(-c4ccccc4)n[nH]c3C(=O)N2c2ccc(C(=O)O)cc2)ccc1O (stereo not drawn) | 6.07 |
| Cc1ccnc(NC(=O)CCC(=O)N(CC(=O)NC2CCCCC2)Cc2ccccc2)c1 | -8.18 |
| CCCN1CCN(C(=O)Nc2cccc(C(F)(F)F)c2)CC1 | -36 |
| Cc1cc(C)nc(SCC(=O)c2ccc(O)cc2O)n1 | -1.33 |
| CCC1Oc2ccc(C)cc2N(CC(=O)N(Cc2ccc(C)o2)C2CC(C)(C)NC(C)(C)C2)C1=O (stereo not drawn) | -26.9 |
| COc1ccc(C[C@H]2CN3C(=NC[C@H]3Cc3ccccc3)N2CCNC(=O)c2ccc(C)c(Br)c2)cc1 | -69 |
| COc1ccc(C(=O)O/N=C(\N)c2ccc(OC)c(OC)c2)cc1 | -18.6 |
| Cn1c(SCC(=O)Nc2cccc(F)c2)nc2c(c1=O)SCC2 | 9.04 |
| CN(C)S(=O)(=O)c1cccc(C(=O)Nc2ccc(S(=O)(=O)N3CCCC3)cc2)c1 | 25.5 |
| Cc1csc(=O)n1CC(=O)OC(C)C(=O)Nc1ccc(F)c(F)c1F (stereo not drawn) | -4.29 |
| CC(CCc1ccccc1)NC(=O)c1ccc(Br)o1 (stereo not drawn) | -18.8 |
| c1cnc(N2CCSCC2)nc1 | 0.773 |
| Cn1nnnc1SCC(=O)Nc1ccccc1Br | 12.3 |
| COc1ccc(-c2nc(SCc3ccc(C#N)cc3)[nH]c(=O)c2C#N)cc1 | 11.3 |
| COc1ccc(NC(=O)c2cc(-c3ccc(C)c(C)c3O)n[nH]2)cc1Cl | 34.9 |
| COc1cc(OC)cc(C(=O)N[C@H](C(=O)NCc2cccs2)C(C)C)c1 | -5.96 |
| OCCN(CCO)CC(O)COc1ccc(Br)cc1 (stereo not drawn) | 3.82 |
| OCC1CO1 (stereo not drawn) | 15.8 |
| CCn1c(=O)cc(SCC(=O)Nc2cc(OC)c(OC)c(OC)c2)c2ccccc21 | -39.8 |
| O=C(NCCc1c[nH]c2ccccc12)C1CCN(c2nnc(N3CCCC3=O)s2)CC1 | 8.42 |
| CC(=O)Nc1ccc(S(=O)(=O)NCc2csc(C)n2)cc1 | 6.2 |
| O=C(CCC(=O)c1cccs1)OCC(=O)N1CCN(S(=O)(=O)c2ccccc2)CC1 | -24.1 |
| CC(C)CCN(CC(=O)NCc1ccc(F)cc1)S(=O)(=O)c1ccccc1F | -5.71 |

| Structure (SMILES) | hERG current change (%, negative = inhibition) at 10uM [%] |
| --- | --- |
| CCOc1ccc(N2C(=O)CC(NCCc3ccc(S(N)(=O)=O)cc3)C2=O)cc1 (stereo not drawn) | -22 |
| CCn1c(C)nc2cc(C#N)ccc21 | 7.06 |
| Cc1[nH]n(C(N)=S)c(=O)c1N=Nc1cccc(Cl)c1 | 15.9 |
| COc1ccc(C2Nc3ccccc3NC3=C2C(=O)CC(C)(C)C3)cc1OC (stereo not drawn) | 13 |
| O=C(O)c1ccc(N(c2ccccc2)c2ccccc2)cc1 | 2.69 |
| O=C(Cc1cccs1)Nc1nc2ccccc2s1 | 3.57 |
| CC(NC(=O)Cn1cnc2c1c(=O)n(C)c(=O)n2C)c1ccccc1 (stereo not drawn) | -0.782 |
| O=C(COC(=O)c1cccnc1Nc1cccc(C(F)(F)F)c1)NC1CCS(=O)(=O)C1 (stereo not drawn) | -16.1 |
| NC(=O)C1(c2ccccc2)CCC(=O)N1c1ccccc1 (stereo not drawn) | 11.3 |
| COc1ccc(NC(=O)c2scc(S(=O)(=O)C(C)C)c2N)cc1 | 8.21 |
| CCCCn1c(N)c(N(CC)C(=O)c2ccc(N(C)S(=O)(=O)c3ccc(C)cc3)cc2)c(=O)[nH]c1=O | -2.35 |
| CN(C)c1ccc(/C=C/c2cccc[n+]2[O-])cc1 | 19.7 |
| Cc1ccc(NC(=O)c2ccc(OCC3CCCO3)cc2)cc1 (stereo not drawn) | -2.87 |
| C#CCOCCOCCOCCNc1nc(N2CCN(C(=O)Cn3cc(CCCC[NH3+])nn3)CC2)nc(N2CCN(C(=O)[C@H]([C@@H](C)CC)n3cc(CCCC[NH3+])nn3)CC2)n1.[Cl-] | 6.58 |
| Cc1occc1-c1nnc(SCC(=O)c2ccc(Cl)cc2)n1C | -20.3 |
| CCn1c(C)nnc1SCC(=O)Nc1ccccc1OC | 21.3 |
| Cc1ccc(-n2c(SCC(=O)Nc3cccc(S(=O)(=O)NC4=NCCCCC4)c3)nc3ccccc3c2=O)cc1 | -11.1 |
| COc1ccc(CSc2nnc(C)n2N)cc1[N+](=O)[O-] | 15.6 |
| Cc1cc(N2CCN(C(=O)c3ccco3)CC2)c2ccccc2n1 | -71.8 |
| COc1cc(C(=O)Nc2nnc(C(C)(C)C)s2)c([N+](=O)[O-])cc1OC | 6.64 |
| CCOC(=O)CC1(NC(=O)C2CCC(=O)N(CCc3ccccc3)C2)CCCCC1 (stereo not drawn) | 19.5 |
| CN(Cc1ccccc1)C(=O)C1CCCN(c2ncnc3c2nc2n3CCCCC2)C1 (stereo not drawn) | -66 |
| C/C(=N/NC(=O)CN1CCN(Cc2ccccc2)CC1)c1ccc([N+](=O)[O-])cc1 | -76.5 |
| O=c1sc2ccccc2c(=O)n1Cc1ccccc1F | 16.7 |
| CC(C)OCCCNC(=O)c1ccccc1Oc1ccccc1 | 0.195 |
| O=c1oc2ccc([N+](=O)[O-])cc2c(N2CCOCC2)c1[N+](=O)[O-] | 20.7 |
| Cc1nn(CC(=O)N2CCc3ccccc3C2)c(C)c1[N+](=O)[O-] | 24 |
